Publication PMC4336329 (PLoS ONE, 2015)
The whole screen tested about 310,000 compounds, of which about 14,000 (4.5%) showed an effect of 50% or more. The effect is printed as a negative number. Some of the results follow.

Target: human ether-à-go-go-related gene (hERG) potassium channel (human, UniProt Q12809)
Assay: primary screen, population patch clamp on CHO cells stably expressing hERG
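Also: peak tail current of the secondary pulse compared with the same well before compound.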

human ether-à-go-go-related gene (hERG) potassium channel, sequence (Q12809 whole entry, looked up): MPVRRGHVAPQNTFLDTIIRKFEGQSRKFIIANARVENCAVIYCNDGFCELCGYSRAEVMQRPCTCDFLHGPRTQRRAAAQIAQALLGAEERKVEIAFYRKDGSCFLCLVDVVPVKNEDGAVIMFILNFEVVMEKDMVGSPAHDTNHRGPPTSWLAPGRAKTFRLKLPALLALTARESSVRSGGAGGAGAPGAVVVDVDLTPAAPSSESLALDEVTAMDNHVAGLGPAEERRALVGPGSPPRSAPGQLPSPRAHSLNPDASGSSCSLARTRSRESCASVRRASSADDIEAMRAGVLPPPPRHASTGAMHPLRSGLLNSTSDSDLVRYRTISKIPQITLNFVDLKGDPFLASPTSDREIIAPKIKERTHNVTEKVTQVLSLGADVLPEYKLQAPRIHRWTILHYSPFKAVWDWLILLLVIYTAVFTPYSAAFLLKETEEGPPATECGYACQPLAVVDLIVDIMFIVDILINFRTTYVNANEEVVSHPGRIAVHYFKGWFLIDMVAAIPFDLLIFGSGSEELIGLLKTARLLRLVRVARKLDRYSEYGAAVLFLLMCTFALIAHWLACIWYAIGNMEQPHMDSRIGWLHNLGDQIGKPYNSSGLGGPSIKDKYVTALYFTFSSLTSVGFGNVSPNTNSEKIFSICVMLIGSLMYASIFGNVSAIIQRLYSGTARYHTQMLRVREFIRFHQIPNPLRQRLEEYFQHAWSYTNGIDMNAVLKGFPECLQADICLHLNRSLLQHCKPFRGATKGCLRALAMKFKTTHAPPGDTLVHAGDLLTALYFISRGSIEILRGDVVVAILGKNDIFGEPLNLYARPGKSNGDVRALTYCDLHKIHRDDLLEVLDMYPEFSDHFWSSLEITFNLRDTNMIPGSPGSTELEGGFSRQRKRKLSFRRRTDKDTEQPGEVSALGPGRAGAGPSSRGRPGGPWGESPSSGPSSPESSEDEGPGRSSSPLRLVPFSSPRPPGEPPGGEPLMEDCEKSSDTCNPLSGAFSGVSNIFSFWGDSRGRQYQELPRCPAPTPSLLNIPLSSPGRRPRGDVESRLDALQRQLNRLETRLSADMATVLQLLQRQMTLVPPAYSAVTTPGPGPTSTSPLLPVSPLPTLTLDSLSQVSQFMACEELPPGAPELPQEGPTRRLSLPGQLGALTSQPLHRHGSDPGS

| Compound | hERG current change (%, negative = inhibition) at 10uM |
| --- | --- |
| C/C(=N\NC(=S)NC(C)C)c1ccco1 | -2.14% |
| COc1ccc(C2CC(=O)C=C(NCc3ccc4c(c3)OCO4)C2)cc1 (stereo not shown) | -73.1% |
| COc1cc(S(=O)(=O)Nc2ccc(C)cc2)ccc1N=Cc1c(C)[nH]n(-c2ccc(C)cc2)c1=O | 14.5% |
| NS(=O)(=O)c1ccc(CNC(=O)c2cc(-c3cccs3)nc3ccccc23)cc1 | 1.57% |
| CN1CCN(C(=O)c2ccc(-c3ccccc3)cc2)CC1 | -11.3% |
| Cc1cccc(CCNS(=O)(=O)c2ccc(S(=O)(=O)NC3CCCC3)cc2)c1 | 9.75% |
| O=C(CCS(=O)(=O)c1ccc(Br)cc1)N1CCN(c2ccccc2)CC1 | -39.8% |
| COC(=O)c1ccc(COc2ccc(C=O)cc2OC)o1 | 4.14% |
| CCN(CC)C(=O)Cn1cc(S(=O)(=O)Cc2cccc([N+](=O)[O-])c2)c2ccccc21 | -26.7% |
| CN(C)c1nc2ccccc2n(C)c1=O | 10.5% |
| COc1ccc(Cl)cc1C(=O)NCC(C)C | 3.05% |
| COc1ccc(-n2nc3c(N4CCC(C(=O)NCCc5ccccc5C)CC4)nnc(C)c3c2C)cc1 | 22.5% |
| CC(=O)NC(Cc1ccc(F)cc1)C(=O)N1CCN(C(=O)NCc2ccccc2)CC1 (stereo not shown) | -5.22% |
| COc1c(Cl)cccc1-c1cn2ccccc2n1 | 1.82% |
| Cc1ccc(Cl)cc1N1CCN(CCN)CC1 | -0.374% |
| CC1=CC(=NOC(=O)/C=C/c2ccccc2)C=C(C)C1=O | 16.3% |
| COC(=O)Cn1ccc(-c2ccc(Cl)cc2)c(C#N)c1=O | -16.3% |
| COc1ccc(-c2sc(Nc3ccccc3)n[n+]2-c2ccc(F)cc2)cc1Br.[Cl-] | 4.03% |
| CCCOC(=O)/C(C(N)=NCc1ccccc1)=C(\O)OCCC | -7.96% |
| CC(C)(/C=N/O)/[N+]([O-])=C/c1ccccc1 | 20.1% |
| O=C(O)CCCC(=O)Nc1ccn(-c2ccccc2)n1 | -0.862% |
| COC(=O)c1ccccc1N/C=C1\CCc2c(c(C)nn2-c2ccccn2)C1=O | 3.14% |

| Compound | hERG current change (%, negative = inhibition) at 10uM |
| --- | --- |
| CN(C)c1nc(N(C)C)nc(N2CCCCC2)n1 | -8.37% |
| O=C(NCC1CC1)c1ccc(Nc2nc3ccc(Br)cc3[nH]2)cc1 | -0.782% |
| CC(C)CN(C(=O)COC(=O)CCSc1ccc(F)cc1)c1c(N)n(Cc2ccccc2)c(=O)[nH]c1=O | 10.1% |
| COc1ccc(S(=O)(=O)N2CCC(C(=O)Nc3ccc(S(=O)(=O)N4CCCC4)cc3)CC2)cc1OC | 8.38% |
| O=C(CSc1nnc(CNc2cccc(Cl)c2)o1)OC1CCCCC1 | -3.59% |
| CCCCSC(=S)N(C)C1CCS(=O)(=O)C1 (stereo not shown) | 2.89% |
| CCOC(=O)c1oc2ccccc2c1NC(=O)c1ccco1 | 4.4% |
| Cc1ccc(C2C(C#N)=C(N)OC3=C2C(=O)CC(C)(C)C3)s1 (stereo not shown) | -4.59% |
| COc1ccc(CNC(=O)Cn2ccc3cc(S(=O)(=O)N4CCCC4)ccc32)cc1OC | -4.61% |
| COc1cccc(-c2nc(C(=O)NCC3CCCO3)cc3c2[nH]c2ccccc23)c1 (stereo not shown) | -26.4% |
| Cc1ccc(S(=O)(=O)NC(C)(C)CSc2ccccn2)cc1 | -14.3% |
| O=C1CC2(CCCC2)Oc2ccccc21 | 3.39% |
| CCOC(=O)c1[nH]c2ccccc2c1NC(=O)c1ccc(S(=O)(=O)N2CCCCC2)cc1 | 3.48% |
| COc1ccc(-c2cc(C(=O)NC3CCCCC3)no2)cc1OC | 14.1% |
| O=C(Nc1ccc(F)cc1)c1cccc(N2C(=O)c3ccccc3C2=O)c1 | 5.7% |
| COc1ccc(C(=O)C2CCCN(Cc3cnc(C)s3)C2)cc1OC (stereo not shown) | -5.12% |
| Fc1ccc(C2CC(c3ccc(F)cc3)n3ncnc3N2)cc1 (stereo not shown) | -60% |
| Cc1cccc(NC(=O)c2nc[nH]c2C(=O)N[C@@H](C)c2ccccc2)c1 | 10.8% |
| CCn1nc(C(=O)N2CCN(Cc3nc4ccccc4s3)CC2)c2ccccc2c1=O | -68.9% |
| CC1CN(S(=O)(=O)c2ccc(C(=O)N3c4ccccc4CC3C)cc2)CC(C)O1 (stereo not shown) | 3.21% |
| Cc1ccc(N2CC(C(=O)OCC(=O)Nc3ccccc3F)CC2=O)cc1 (stereo not shown) | -0.51% |
| COc1ccc(CN2CCNC(=O)C2CC(=O)O)cc1OC (stereo not shown) | 20.6% |

| Compound | hERG current change (%, negative = inhibition) at 10uM |
| --- | --- |
| Cc1ccc(-n2nc3cc(Cl)c(NC(=O)c4ccco4)cc3n2)cc1 | 3.69% |
| CCCCCC1CC(CC(C)C(=O)Nc2nncs2)C(=O)O1 (stereo not shown) | -44.1% |
| O=P1(c2ccccc2)C=Cn2c1cc1c2CCCC1 (stereo not shown) | -9.21% |
| Nc1ccccc1C(=O)NNC(=O)C(=O)/C=C(\O)c1ccccc1 | -6.64% |
| CC(=O)Nc1ccc(S(=O)(=O)NCCNc2ccccc2[N+](=O)[O-])cc1 | -25.6% |
| Cc1ccc(-c2nc(C#N)c(NCCCn3ccnc3)o2)cc1 | -21.9% |
| Cc1ccc(C)c(SCC(=O)N(C)CC(=O)Nc2ccc(N3CCOCC3)cc2)c1 | -5.12% |
| CCS(=O)(=O)n1nc(-c2ccc(Cl)cc2)nc1SC | 21.9% |
| CCN1C(=O)C(CC(=O)Nc2ccc(F)cc2)N(Cc2cccs2)C1=S (stereo not shown) | -48.9% |
| CC(=O)c1cccc(NC(=S)Nc2cccc3ccccc23)c1 | 13.7% |
| COC(=O)c1cc(Sc2c(Cl)cccc2Cl)ccn1 | -36.5% |
| c1ccc(-c2nc3cnccn3c2Nc2ccc3c(c2)OCCO3)cc1 | 4.22% |
| CCOc1ccccc1C(=O)n1nc2nc(C)cc(C)c2c1N | -1.43% |
| C[C@H]1CC[C@H]2C(=O)N3[C@H](c4cccc(N5CCCC5=O)c4)[C@@H](C)CC[C@H]3C(=O)N2[C@@H]1c1cccc(N2CCCC2=O)c1 | -56.3% |
| Cc1occc1C(=O)N1CCCC(N2CCN(c3cccc(C(F)(F)F)c3)CC2)C1 (stereo not shown) | -38.9% |
| CC(/C=C/c1ccccc1F)=N\NC(=O)C(C)C | -4.64% |
| Cc1cc2c(c(=O)n1Cc1ccco1)C(c1ccccc1)C(C#N)=C(N)O2 (stereo not shown) | -0.879% |
| Cc1cc(CNC(=O)CCc2nnc(CCCCc3ccccc3)o2)nn1C | 38.1% |
| O=C1CSC(c2ccccc2)N1Cc1ccccc1 (stereo not shown) | 13.2% |
| COc1ccc(C(=O)Nc2cc(C)c(NC(=O)c3ccccn3)cn2)cc1 | 1.13% |
| CC1CCCC(C)N1C(=O)COC(=O)CCc1nc2ccccc2c(=O)[nH]1 (stereo not shown) | -1.29% |
| N#Cc1cc(-c2cccc(Cl)c2)c[nH]c1=O | 12.8% |

| Compound | hERG current change (%, negative = inhibition) at 10uM |
| --- | --- |
| COCCN(C(=O)CCC(=O)Nc1nccs1)C(C(=O)NC(C)(C)C)c1ccc(C)cc1 (stereo not shown) | 5.03% |
| Cc1cccc(NC(=O)Nc2cnccn2)c1C | 14.9% |
| O=C(CCSCc1ccc(Cl)cc1)NCCc1ccccc1 | -5.27% |
| COc1ccc(S(=O)(=O)N(C)CC(=O)NCc2ccco2)cc1Cl | -1.3% |
| CCOc1ccc(-c2c(C)n(-c3ccc(OCC)cc3)c3[n+]2CCCCC3)cc1.[O-][Cl+3]([O-])([O-])[O-] | -77.7% |
| O=C(Nc1ccc(F)cc1F)c1cccnc1Oc1cccc(C(F)(F)F)c1 | 0.51% |
| CCN(CC)CC(C)OC(=O)COc1ccc(OC)cc1.Cl (stereo not shown) | 13.1% |
| CN(Cc1ccccc1)C(=O)CN1C(=O)c2ccc([N+](=O)[O-])cc2C1=O | -17.9% |
| O=C(N/N=C/c1c[nH]c2ccccc12)c1ccn(Cc2ccc(Cl)cc2)n1 | 3.88% |
| Cn1c(=O)c(C(=O)Nc2ncccc2O)c(O)c2ccccc21 | 11% |
| Cc1cccc(C)c1Nc1nnc(SCc2cc([N+](=O)[O-])cc3c2OCOC3)s1 | -21% |
| Nc1c(N(CCO)C(=O)/C=C/c2ccco2)c(=O)[nH]c(=O)n1Cc1ccccc1 | 10.1% |
| O=C1/C(=C/c2ccc(O)cc2)SC(=S)N1Cc1cccnc1 | 16.4% |
| O=C(c1cccn2c(=O)c3ccccc3nc12)N1CCN(c2ccccn2)CC1 | -53% |
| O=C(NC1CCCCC1)C1CN(S(=O)(=O)c2ccccc2)CCN1S(=O)(=O)c1ccccc1 (stereo not shown) | -39.1% |
| CCSc1nnc(NC(=O)C2Cc3ccccc3CN2S(=O)(=O)CC)s1 (stereo not shown) | -2.13% |
| CCC(C)(NC=O)C(=O)Nc1c(C)cccc1C (stereo not shown) | 4.21% |
| Cc1csc(NC(=O)c2ccc(S(=O)(=O)N3CCCC3)cc2)n1 | -16.5% |
| COc1ccc(-n2c(SCC(=O)O)nc3sc4c(c3c2=O)CCC4)cc1 | 18.9% |
| CC(=O)Nc1ccc(N2C(C(C)=O)=NN(c3ccccc3)C2c2cccs2)cc1 (stereo not shown) | 18% |
| Cc1ccccc1NC(=O)N1CCCC1C(=O)NCc1cccs1 (stereo not shown) | 2.01% |
| COc1ccc(NC(=O)N2CCC3(CC2)OCCO3)cc1OC | 5.72% |
